Results taken from PubChem BioAssay AID1508642 (National Center for Advancing Translational Sciences (NCATS), 2021).
The campaign covered roughly 43,000 compounds. About 200 (0.47%) were called active. Not shown: some 12% with an inconclusive outcome. Calls follow the shape of the dose curve; as a rule, active = well fitted cell-killing curve with a large enough effect; inconclusive = small, poorly fitted or top-dose-only effect, or effect the other way; inactive = flat fitted curve, though single readings scatter. This is one part of the list.

Assay: Cell viability qHTS assay in S16 Pmp22-F2sN cells; also: nearly all actives have a fitted effect of over 65% in size
Settings: S16 Pmp22-F2sN Schwann cells (luciferase reporters placed in the Pmp22 gene) viability, CellTiter-Glo, 24 h; series mostly up to 57.5 µM; activity change, negative = cytotoxicity: at the top concentration
How it was run: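 CellTiter-Glo counter-screen, qHTS, 1536-well. Cells: S16(c9) Pmp22-F2sN, 500-1,000/well in DMEM + 10% FBS. Cpd 23 nL pin transfer, 24 h, 37C/5% CO2. Read: luminescence, CCD imager.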
% is scaled to controls: 0 for no effect and ±100 for the full control effect.

SMILES | activity change, negative = cytotoxicity
CC1CCc2nc3ncn(Cc4ccccc4F)c(=O)c3cc2C1 (configuration not stated) | inactive: 2.17%
O=C(Nc1ccc(OCc2cc(=O)n3c4c(sc3n2)CCCC4)cc1)c1ccccc1 | inactive: 3.12%
CCOc1ccc(OCC)c(NS(=O)(=O)c2c(C(=O)N3CCC(C)CC3)c(C)n(C)c2C)c1 | inactive: 8.22%
COc1ccc(N2CC(NC(=O)c3ccc4c(c3)OCO4)CC2=O)cc1 (configuration not stated) | inactive: 8.3%
COc1ccc(NC(=O)CN(c2ccc(C)cc2)S(=O)(=O)c2cccc3nonc23)cc1OC | inactive: -1.57%
Cc1ccc(CNS(=O)(=O)c2ccc(-c3cc(C(F)(F)F)on3)s2)cc1 | inactive: -1.86%
Nc1c(C(=O)Nc2ccccc2)nnn1Cc1ccc(F)cc1Cl | inactive: 0.269%
Cc1ccc(N2C(=O)[C@@H]3CSC(c4ccc(F)cc4)N3C2=O)cc1 (some centres not stated) | inactive: 2.81%
CCOc1ccccc1C(=O)Nc1nc2c(s1)CC(C)CC2 (configuration not stated) | inactive: 1.01%
COC(=O)Cn1c(=O)c2c(nc3n2CCN3c2ccc(F)cc2)n(C)c1=O | inactive: 13.5%
O=C(NCc1ccccc1Cl)NCc1noc2ccccc12 | inactive: 5.54%
Cc1nn(C(C)(C)C)c(OC(=O)C(C)(C)C)c1Sc1ccccc1 | inactive: -0.633%
O=C(Nc1ccc(Cl)c(-c2nc3cc(Cl)ccc3o2)c1)c1cc([N+](=O)[O-])ccc1N1CCOCC1 | inactive: 2.64%
COc1cc(NC(=O)COCc2cc(-c3ccc(F)cc3)on2)cc(OC)c1OC | inactive: -27.4%
Cc1ccc(C(=O)Nc2cc3c(cc2N2CCCC2)n(C)c(=O)c(=O)n3C)cc1 | inactive: 14.5%
CCOC(=O)c1ccc(NC(=O)C(Cc2ccccc2)NS(=O)(=O)c2ccc(Br)s2)cc1 (configuration not stated) | inactive: -2.94%
CCOC(=O)c1c(C)oc2nc(C)nc(NCc3ccccc3OCC)c12 | inactive: 0.94%
Cc1cc(C)cc(Nc2sc(C(=O)c3ccccc3)c(N)c2S(=O)(=O)c2ccccc2)c1 | inactive: -17.6%
CC(=O)Nc1ccc(C2Nc3c(C)cc(C)cc3-c3cc(C)nn32)cc1 (configuration not stated) | inactive: -8.12%
Cc1ccc(S(=O)(=O)NCCSc2nnnn2-c2ccc(Cl)c(C(=O)O)c2)cc1 | inactive: 2.3%
O=C(NCc1ccccc1Cl)C1CCCN(c2ncnc3onc(-c4ccc(F)cc4)c23)C1 (configuration not stated) | inactive: -7.88%

SMILES | activity change, negative = cytotoxicity
CCCc1nc2ccccc2n2c(-c3cccc(C)c3)c3c(=O)n(C)c(=O)n(C)c3c12 | inactive: 2.93%
CCc1nn(CC(=O)NC(C)c2ccccc2)c(=O)c2cc3sccc3n12 (configuration not stated) | inactive: 3.01%
CCOC(=O)C1=C(CS(=O)(=O)c2ccc(F)cc2)NC(=O)NC1c1ccc(OCC)c(OC)c1 (configuration not stated) | inactive: 7.37%
CC(C)CCNC(=O)[C@@H](c1ccccc1)N1Cc2ccccc2C1=O | inactive: 0.562%
CCOc1ccc(NC(=O)Cn2nnc(C(=O)Nc3ccc(OCC)cc3)c2N)cc1 | inactive: 1.18%
Cc1ccc(C)c(N2CCN(c3cc(C)nc4c(-c5ccc(Cl)cc5)c(C)nn34)CC2)c1 | inactive: 12%
Cc1cc(C)cc(OCC(=O)NCC2(N(C)C)CCCCC2)c1 | inactive: 5.84%
O=C(COc1ccccc1-c1nc(-c2ccccc2)no1)Nc1ccccc1[N+](=O)[O-] | inactive: 9.03%
CCCc1cc(=O)n2[nH]c(NCc3ccccc3OC)nc2n1 | inactive: 6.81%
Cc1ccc(S(=O)(=O)N2CCC(c3ccncc3)CC2)c(C)c1 | inactive: -25%
Cc1cccc(CN2CCc3nc(N4CCN(c5ccccn5)CC4)ncc3C2)c1 | inactive: 3.8%
CCc1ccc(NC(=O)Cn2c(=O)n(CCC(=O)NCc3ccc4c(c3)OCO4)c(=O)c3ccccc32)cc1 | inactive: 0.473%
Cc1cc(NC(=O)c2cc(-c3ccc(Cl)cc3)on2)nn1Cc1ccc(Cl)cc1 | inactive: -1.79%
CCC1CN(C(=O)Nc2cc(C)cc(C)c2)c2ccccc2O1 (configuration not stated) | inactive: -19.7%
CC(=O)c1ccc(NC(=O)CCc2c(C)nc3cc(-c4ccc(Cl)cc4)nn3c2C)cc1 | inactive: -5.89%
Cc1ccc(C)c(NC(=O)CN(CCc2ccccc2)S(=O)(=O)c2ccccc2)c1 | inactive: 3.79%
Cc1cccc(Cc2c(C)nc3nc(SCc4ccccc4C)nn3c2C)c1 | inactive: -28.1%
COc1cccc(Cn2c(=O)n(-c3ccccc3C)c(=O)c3c2c2cc(C)ccc2n3C)c1 | inactive: 3.85%
COc1cccc(NC(=O)C2CCN(C(=O)N3CC(C)Oc4ccccc43)CC2)c1 (configuration not stated) | inactive: -1.66%
Cc1ccc(CNC(=O)CN2C(=O)C3CCCCN3c3ccc(C(=O)N4CCCC4)cc32)cc1 (configuration not stated) | inactive: -5.46%
COc1ccc(Cl)cc1C(=O)Nc1ccc(-c2nnc3n2CCCCC3)cc1 | inactive: 11.9%

SMILES | activity change, negative = cytotoxicity
O=C(NCc1ccccc1Cl)c1ccc2c(O)c(S(=O)(=O)c3ccccc3)c(=O)[nH]c2c1 | inactive: 4.07%
CCCCOc1ccc(CNC(=O)c2cnc3sc(N4CCOCC4)nn3c2=O)cc1 | inactive: -5.74%
COc1cccc(OCc2nc3ccccc3n2CCOc2ccccc2C)c1 | inactive: 6.81%
CN(C)S(=O)(=O)c1ccc2c(c1)nnn2CCNC(=O)Nc1ccc(Br)cc1 | inactive: -14.6%
O=C(C1CC1)N1CCN(c2nc3ccc(F)cc3s2)CC1 | inactive: -15%
Cc1ccc(C)c(Nc2nn3c(=O)c4ccc(C(=O)NC5CCCCC5)cc4nc3s2)c1 | inactive: -19.4%
COc1ccc(CCNC(=O)CCCCn2c(=O)c3ccccc3n(Cc3ccc(F)cc3Cl)c2=O)cc1OC | inactive: 5.07%
Cc1ccc(C(=O)NCC(c2cccnc2)N2CCc3ccccc32)cc1C (configuration not stated) | inactive: 0.918%
Fc1ccc(-c2cc(-c3ccccc3)c3c(n2)-c2cc(F)ccc2OC3)cc1 | inactive: 8.19%
Cc1ccc(-c2c(C)n3c4c(=O)n(C)c(=O)n(C)c4nc3n2-c2cccc(O)c2)cc1 | inactive: 7.49%
CC1CCN(S(=O)(=O)c2cc3c4c(c2)CC(=O)N4CCC3)CC1 | inactive: -0.0589%
COc1ccc(S(=O)(=O)NCC(c2ccco2)N2CCOCC2)cc1 (configuration not stated) | inactive: -13.1%
Cc1cc(C)cc(NC(=O)CSc2oc(-c3cccs3)nc2S(=O)(=O)c2ccccc2)c1 | inactive: 6.35%
COc1ccccc1Nc1nn2c(=O)c3ccc(C(=O)N4CCCCC4)cc3nc2s1 | inactive: -13.3%
Cc1cccc(C)c1N1CC(c2nc3ccccc3n2CC(=O)OC(C)C)CC1=O (configuration not stated) | inactive: 17.3%
CCOC(=O)c1cc(S(=O)(=O)N2CCN(c3cc(C)ccc3C)CC2)[nH]n1 | inactive: -2.96%
COc1cc(-c2ccno2)ccc1S(=O)(=O)N1CCN(c2ccccc2F)CC1 | inactive: -7.03%
COC(=O)c1ccc(NC(=O)C(=O)NCCc2sc(-c3cccc(F)c3)nc2C)cc1 | inactive: 1.5%
CCCN(CCC)C(=O)CSc1nc2ccccc2c(=O)n1Cc1ccco1 | inactive: -18.5%
COc1ccc(CC(=O)NCc2nc3cccnc3n2Cc2ccc(C)cc2)cc1 | inactive: 14.3%
